Measured values: PubChem BioAssay (NCATS)
Inconclusive means that the source gave no clear call. Such entries were picked first, then a sample of the others. Where a call stands in place of a potency, no number is given. A potency beside an inconclusive call is a rough fit, not a confirmed value. Activity calls are given as the source filed them. Calls come from the whole dose curve; as a rule, active = well fitted cell-killing curve with a large enough effect; inconclusive = small, poorly fitted or top-dose-only effect, or effect the other way; inactive = flat fitted curve, though single readings scatter.

system: SKOV3; experiment: Primary qHTS to identify gynecologic anti-cancer compounds using libraries of approved drugs and bioactive compounds (AID 1345084); conditions: Gynecologic cancer cell panel viability, ATPlite luminescence, 48 h; series mostly up to 57.5 µM; note: nearly all actives have a fitted effect of over 55% in size
Outline: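 Luminescence from the ATPlite ATP-monitoring reagent indicates viable cell number; lower signal means cytotoxicity. Cells received compound 16 h after seeding and were exposed for 48 h across five concentrations.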
Potency is the fitted concentration of half-maximal effect; tags give direction and shape of the fitted curve.

Compound | Potency
O=C(NC(=O)c1c(F)cccc1F)Nc1cc(Cl)c(OC(F)(F)C(F)C(F)(F)F)cc1Cl (stereo not drawn) | inconclusive: 0.891 µM [rising, full curve]
CC(=O)C1CCOC1=O (stereo not drawn) | inactive
CC(=O)O[C@H]1C(=O)[C@]2(C)C(O)C[C@H]3OC[C@@]3(OC(C)=O)[C@H]2[C@H](OC(=O)c2ccccc2)[C@]2(O)C[C@H](O)C(C)=C1C2(C)C (stereo partly drawn) | inactive
O=[N+]([O-])c1cc([As](=O)(O)O)ccc1O | inactive
Cc1cccc(NC(=O)N[C@@H]2N=C(c3ccccc3)c3ccccc3N(C)C2=O)c1 | inconclusive: 7.08 µM [rising, full curve, poor fit]
COC(=O)C(Cl)C(=O)OC | inactive
Cc1ccccc1C1=CCN(C)CC1 | inconclusive: 3.16 µM [cytotoxic, single point]
CC1Sc2c(C(=O)O)c(=O)c3cc(F)c(N4CCNCC4)cc3n21 (stereo not drawn) | inconclusive: 3.98 µM [rising, single point]
Cc1[nH]c2ccc(Cl)cc2c1CCN(C)C | inconclusive: 25.1 µM [rising, single point]
CCCCCn1cc(C(=O)Oc2cccc3cccnc23)c2ccccc21 | inactive
CCCCCn1cc(C(=O)C2C(C)(C)C2(C)C)c2ccccc21 | inconclusive: 7.08 µM [rising, single point]
S=C(NC1CCCCC1)N1CCC(c2cnc[nH]2)CC1 | inactive
C=CC(C)(C)c1[nH]c2c(CC=C(C)C)cc(CC=C(C)C)cc2c1C[C@@H]1NC(=O)[C@H](C)NC1=O | inactive
